Earlier results, collected in PMC11956011, “An Amazing 30-Year Journey around the DABO Family: A Medicinal Chemistry Lesson on a Versatile Class of Non-nucleoside HIV-1 Reverse Transcriptase Inhibitors” (Journal of Medicinal Chemistry, 2025).

System: K103N HIV-1 RT
Conditions: for Fold-resistance K103N RT (ID50): Fig 10, in brackets

For `COc1ccc(CSc2nc(O)c(C)c(Cc3c(F)cccc3F)n2)cc1` [compound 79], the “ID50: K103N” value (Fig 9) is given as 3.5 µM.

In the case of `COc1ccc(CCSc2nc(Cc3c(Cl)cccc3Cl)c(C)c(=O)[nH]2)cc1` [compound 77], the “ID50: K103N” value (Fig 9) is listed as 3.2 µM.

In the case of `CCc1c(Cc2c(F)cccc2Cl)nc(SCC(=O)c2ccc(F)cc2)[nH]c1=O` [compound 103], the “ID50: K103N” value (Fig 10) is given as 1.64 µM and the “Fold-resistance K103N RT (ID50)” value is given as 50.

For `CCc1c(Cc2c(Cl)cccc2Cl)nc(SCC(=O)c2ccccc2)[nH]c1=O` [compound 101], the “ID50: K103N” value (Fig 10) is listed as 1.88 µM and the “Fold-resistance K103N RT (ID50)” value is listed as 26.

For `COc1ccc(CSc2nc(Cc3c(Cl)cccc3Cl)c(C)c(=O)[nH]2)cc1` [compound 76], the “ID50: K103N” value (Fig 9) is listed as 102 µM.

For `CCCCSc1nc(C(C)c2c(F)cccc2Cl)cc(=O)[nH]1` (stereo not drawn) [compound 39], the “ID50: K103N” value (Fig 5) is given as 2.2 µM.

In the case of `Cc1c(Cc2c(F)cccc2F)nc(Sc2ccccc2)[nH]c1=O` [compound 80], the “ID50: K103N” value (Fig 9) is given as > 400 µM.

In the case of `COc1ccncc1Sc1nc(Cc2c(Cl)cccc2Cl)c(C)c(=O)[nH]1` [compound 82], the “ID50: K103N” value (Fig 9) is given as > 400 µM.

In the case of `CCc1c(Cc2c(F)cccc2F)nc(SCC(=O)c2ccccc2)[nH]c1=O` [compound 104], the “ID50: K103N” value (Fig 10) is listed as 3.7 µM and the “Fold-resistance K103N RT (ID50)” value is listed as 86.

For `O=c1cc(Cc2ccccc2)nc(NCCCCO)[nH]1` [compound 23, 6-benzyl-N^2-(4-hydroxybutyl)isocytosine], the Ki (read-out: RT assay, Ki: K103N, Fig 4) is given as 840 µM.

In the case of `CC(C)c1c(Cc2c(Cl)cccc2Cl)nc(SCC(=O)c2ccccc2)[nH]c1=O` [compound 102], the “ID50: K103N” value (Fig 10) is listed as 27.7 µM and the “Fold-resistance K103N RT (ID50)” value is listed as 894.

In the case of `Cc1c(C(C)c2c(F)cccc2Cl)nc(SC(C)C)[nH]c1=O` (stereo not drawn) [compound 41], the “ID50: K103N” value (Fig 5) is given as 1.4 µM.

In the case of `CCCSc1nc(C(C)c2c(F)cccc2Cl)c(C)c(=O)[nH]1` (stereo not drawn) [compound 42], the “ID50: K103N” value (Fig 5) is listed as 1.5 µM.

For `Cc1c(Cc2c(F)cccc2F)nc(Sc2ccc(Cl)cc2)[nH]c1=O` [compound 81], the “ID50: K103N” value (Fig 9) is listed as > 400 µM.

For `Cc1c(C(C)c2c(F)cccc2Cl)nc(SC2CCCC2)[nH]c1=O` (stereo not drawn) [compound 43], the “ID50: K103N” value (Fig 5) is listed as 1.3 µM.

For `CC(c1cc(=O)[nH]c(SC2CCCC2)n1)c1c(F)cccc1Cl` (stereo not drawn) [compound 40], the “ID50: K103N” value (Fig 5) is given as 1.8 µM.

For `COc1ccc(CCCSc2nc(O)c(C)c(Cc3c(Cl)cccc3Cl)n2)cc1` [compound 78], the “ID50: K103N” value (Fig 9) is listed as 0.5 µM.

Like-named read-outs stand apart in the source and are kept apart here.
